The list shows a part of the results. Values were computed here from the reads of four pooled replicates and scatter widely.
target: T1, Pho4 (S. cerevisiae) (UniProt P07270); assay: relative binding free energy (BET-seq); higher = weaker binding; conditions: reference: library average
T1 sequence: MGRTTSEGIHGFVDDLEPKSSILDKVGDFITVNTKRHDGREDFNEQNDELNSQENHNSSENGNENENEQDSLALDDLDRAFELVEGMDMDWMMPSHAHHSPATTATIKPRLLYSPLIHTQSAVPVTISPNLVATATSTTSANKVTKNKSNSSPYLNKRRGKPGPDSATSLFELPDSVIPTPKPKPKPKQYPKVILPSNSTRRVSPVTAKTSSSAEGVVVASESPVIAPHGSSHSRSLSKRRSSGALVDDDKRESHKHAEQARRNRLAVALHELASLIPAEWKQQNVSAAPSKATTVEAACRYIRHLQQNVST

| Sequence | relative binding free energy [kcal/mol] |
| --- | --- |
| AGGGACACGTGTGTAT | 0.08 |
| TGAAGCACGTGTGTTT | 0.03 |
| TTTGTCACGTGGAAGG | 0.13 |
| GGGGTCACGTGTCCGT | 0.12 |
| GGTTACACGTGGCTGG | 0.08 |
| GCGATCACGTGTGGTC | 0.46 |
| TACGTCACGTGGCGTG | -0.04 |
| GTGCGCACGTGTGAGA | 0.13 |
| CTGTGCACGTGTGATT | -0.13 |
| TAGCACACGTGTGTGG | 0.02 |
| GTCGTCACGTGTGTTC | 0.22 |
| AAGAGCACGTGGGCGT | -0.34 |
| GATTCCACGTGTAGGT | 0.03 |
| GTAAGCACGTGTGTGA | 0.01 |
| GGTACCACGTGGATTT | 0.07 |
| TTAATCACGTGATGAA | 0.43 |
| GGGTACACGTGGAGCG | 0.04 |
| TGTAGCACGTGGTCGC | -0.23 |
| CGTTTCACGTGGTTTT | 0.27 |
| ATAGACACGTGTGTTG | -0.14 |
| GATTGCACGTGTCTGG | 0.03 |
| TAATTCACGTGTAATA | 0.31 |
| TACTGCACGTGTAGTT | 0.05 |

| Sequence | relative binding free energy [kcal/mol] |
| --- | --- |
| TGCATCACGTGTGGGA | 0.03 |
| TGGTACACGTGTGGCC | 0.27 |
| ATGCGCACGTGGGTAT | -0.3 |
| TTTTGCACGTGATGGC | 0.14 |
| ATGGTCACGTGGGGAT | -0.12 |
| AATAGCACGTGTATTG | -0.05 |
| ATAGGCACGTGTTCAG | -0.13 |
| AGAGTCACGTGGAATT | 0.28 |
| TCATTCACGTGAATAG | 0.5 |
| CGTCGCACGTGTGTTG | 0.04 |
| ATATTCACGTGTAGTG | 0.1 |
| AAGATCACGTGGTAGT | 0.13 |
| GTTATCACGTGAGTTT | 0.29 |
| GCGTTCACGTGGGGGG | 0.05 |
| TTGAGCACGTGATTAG | 0.03 |
| TTGTGCACGTGATGAG | 0.18 |
| GGGGACACGTGCTCGG | -0.04 |
| CCTTTCACGTGTTGTG | 0.2 |
| CTTTTCACGTGAATGT | 0.48 |
| AAGGTCACGTGGGCTT | -0.1 |
| TGGGACACGTGTGGTG | 0.11 |
| ATTAACACGTGTTGGC | 0.02 |
| TAGGACACGTGGAAGG | 0.23 |

| Sequence | relative binding free energy [kcal/mol] |
| --- | --- |
| ATGGCCACGTGCTGGG | -0.21 |
| GGTTGCACGTGTGCGA | 0.06 |
| GAGGGCACGTGCTGCT | -0.08 |
| AGAGACACGTGTTAGT | 0.03 |
| GTTGTCACGTGAATCG | 0.26 |
| AATGGCACGTGTAAGG | -0.06 |
| GTGACCACGTGGTGTG | -0.07 |
| GATGGCACGTGAAGGA | 0.24 |
| GAGTTCACGTGGCGGA | 0.43 |
| GTGGTCACGTGACGAG | 0.26 |
| TAATGCACGTGGGGCG | -0.17 |
| CTGTCCACGTGAGGGT | 0.23 |
| TGTCACACGTGGAGGA | 0.05 |
| ATTATCACGTGTGAAT | 0.24 |
| TAAAACACGTGTGTGG | 0.01 |
| TGTGTCACGTGACAGG | 0.12 |
| GATTTCACGTGGAGAG | 0.37 |
| GTCGGCACGTGTGTGT | 0.05 |
| GGCATCACGTGAGCGG | 0.3 |
| GAGGGCACGTGGCGTA | -0.18 |
| AAAGGCACGTGTCGTA | -0.11 |
| ATGTGCACGTGATTGG | 0.07 |
| AGTGTCACGTGGGTCT | -0.03 |

| Sequence | relative binding free energy [kcal/mol] |
| --- | --- |
| TAGGACACGTGTTGGC | 0.05 |
| GGGTCCACGTGCGTGG | -0.02 |
| GAAGGCACGTGTGCTG | -0.15 |
| TGTGGCACGTGTGTGC | -0.07 |
| CATCTCACGTGGGTTG | 0.12 |
| GCGGTCACGTGAGAGG | 0.3 |
| GGGTCCACGTGAGGAG | 0.2 |
| GTTGTCACGTGGGCGG | -0.03 |
| GAATTCACGTGGTTAG | 0.34 |
| TACGGCACGTGGAGGG | -0.1 |
| GTGGGCACGTGGTGGC | -0.05 |
| AGTTCCACGTGAGGTA | 0.23 |
| AGTACCACGTGTGGGT | -0.08 |
| CCGGTCACGTGTCTGG | 0.29 |
| CAATTCACGTGGTGGG | 0.29 |
| TCTGGCACGTGCGGTG | -0.15 |
| ACGGCCACGTGGGGGT | -0.19 |
| GCTTACACGTGTAGGG | 0.14 |
| TGGCGCACGTGTAGAT | 0.18 |
| GATGGCACGTGTCATG | -0.03 |
| GCGGCCACGTGGTGGG | -0.28 |
| ATCTTCACGTGTTTGT | 0.23 |
| GGGTGCACGTGAAGGG | 0.24 |

| Sequence | relative binding free energy [kcal/mol] |
| --- | --- |
| ATTGACACGTGGGCAA | -0.07 |
| GGTTGCACGTGGTAGA | -0.06 |
| AGATGCACGTGCTGTT | -0.07 |
| TAGTGCACGTGTGGCA | -0.12 |
| CAGGGCACGTGGGGTC | -0.23 |
| TTTGCCACGTGGTTTC | -0.15 |
| CTAGGCACGTGGCAGG | -0.23 |
| GGGCGCACGTGCAAGG | 0.02 |
| AGGTGCACGTGAGACT | 0.19 |
| TGCGCCACGTGTTGTT | -0.03 |
| TGTTACACGTGTCAAT | 0.15 |
| GGTTTCACGTGGCGGC | 0.36 |
| TTGTACACGTGTGAGC | 0.24 |
| CTGGGCACGTGTGTTA | -0.07 |
| TGGCGCACGTGACGGT | -0.04 |
| TGTCTCACGTGGGTGC | 0.17 |
| GGGGACACGTGAGTAG | 0.3 |
| TTAATCACGTGTTGTC | 0.18 |
| TAGGGCACGTGGAATA | -0.17 |
| TGAGGCACGTGTAGGA | -0.1 |
| TATCGCACGTGTGATG | 0.01 |
| CGTGCCACGTGGGTCG | -0.17 |
| AGGGACACGTGATCTT | 0.32 |

— the BET-seq Pho4 binding data (Le et al. 2018)
